{"source": "PubChem BioAssay AID588855", "about": "(National Center for Advancing Translational Sciences (NCATS), 2011)", "note": "Several values for one entry are separate records, joined by “and”; a condition that tells them apart may be missing. Equal entries are not always repeated. The campaign covered roughly 410,000 compounds. About 5,000 (1.2%) were called active. Inconclusive results, whose numbers are uncertain, are shown with a selection of clear calls. Calls follow the shape of the dose curve; as a rule, active = well fitted inhibition curve with a large enough effect; inconclusive = small, poorly fitted or top-dose-only effect; inactive = no such curve, though single readings can be large or run the other way. Potencies beside an inconclusive call are fits to weak or partial responses and may not hold up. Potency is read from the fitted curve at half-maximal effect; tags tell the direction and shape of the fitted curve.", "data": [{"test": "qHTS for Inhibitors of TGF-b; also: nearly all actives have a fitted effect of over 65% in size", "conditions": "HepG2 CAGA-GFP TGF-b/SMAD3 reporter, GFP fluorescence, 18 h, TGF-beta stimulated, 500 pg/mL final; series mostly up to 46.1 µM", "method_in_brief": "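Using HEPG2 CAGA-GFP reporter cells at 1000 cells/well, we pinned test compounds, stimulated with recombinant TGF-beta (500 pg/mL final) and measured total well GFP after 18 h.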", "values": [{"smiles": "Cc1cc(C)n2nc(SCC(=O)c3cc(C)n(-c4cc(C)on4)c3C)nc2n1", "Potency": "inconclusive: 35.5 µM [inhibitor, single point]"}, {"smiles": "COc1ccc2sc(-c3ccccc3OC)c(C#CCCO)c2c1", "Potency": "inconclusive: 17.8 µM [inhibitor, single point]"}, {"smiles": "CCOCCc1nnc(NC(=O)CCS(=O)(=O)c2ccccc2)s1", "Potency": "inconclusive: 14.1 µM [inhibitor, partial curve, poor fit]"}, {"smiles": "Cc1ccccc1NC(=S)NCc1ccc2[nH]c3c(c2c1)CCCC3", "Potency": "inconclusive: 22.4 µM [inhibitor, single point]"}, {"smiles": "O=C(NCc1ccccc1)c1cc(-c2cccc(Cl)c2)on1", "Potency": "inconclusive: 0.316 µM [inhibitor, full curve, poor fit]"}, {"smiles": "O=C(Nc1ccc2c(c1)CCC2)c1cccc(S(=O)(=O)N2CCN(c3ccc(F)cc3)CC2)c1", "Potency": "inconclusive: 7.08 µM [inhibitor, partial curve]"}, {"smiles": "O=C1/C(=C/c2ccccc2)NC(=S)N1C(c1ccccc1)c1ccccc1", "Potency": "inactive"}, {"smiles": "O=C(O)c1ccccc1NCc1ccncc1", "Potency": "inconclusive: 5.62 µM [inhibitor, single point]"}, {"smiles": "CC(C)(C)NC(=O)c1cccc(NC(=O)c2ccc3c(c2)C(=O)N(C(C)(C)C)C3=O)c1", "Potency": "inconclusive: 14.1 µM [inhibitor, single point]"}, {"smiles": "Cc1ccccc1C(=O)Nc1nnc(-c2ccc(F)cc2)o1", "Potency": "inconclusive: 12.6 µM [inhibitor, single point]"}, {"smiles": "COc1ccc(Cl)cc1CC=NNC(=O)c1ccncc1", "Potency": "inconclusive: 5.01 µM [inhibitor, single point]"}, {"smiles": "CC(C)(C)OC(=O)N[C@@H](C(=O)OC(C)(C)C)c1ccc(C(F)(F)F)cc1", "Potency": "inconclusive: 0.794 µM [inhibitor, partial curve, poor fit]"}, {"smiles": "Cc1ccc(Cn2c(=O)n(CCCCC(=O)NCCc3ccc(Cl)cc3)c(=O)c3ccccc32)cc1", "Potency": "inactive"}, {"smiles": "CN1CCN(C(=O)c2cnn(-c3ccccc3)c2NC(=O)c2ccccc2Br)CC1", "Potency": "inactive"}, {"smiles": "Cc1csc(NC(=O)CSCC(=O)O)c1-c1nc2ccccc2s1", "Potency": "inconclusive: 11.2 µM [inhibitor, partial curve, poor fit]"}, {"smiles": "Cc1ccc(CN2C(=O)C[C@@H](NC(=O)OCC3c4ccccc4-c4ccccc43)C/C=C\\C2c2ccc(C)cc2)cc1", "note": "(stereo partly specified)", "Potency": "inconclusive: 11.2 µM [inhibitor, partial curve]"}, {"smiles": "COc1cc(NC(=O)c2cc3ccccc3o2)ccc1NC(=O)c1ccco1", "Potency": "inactive"}, {"smiles": "Cc1ccc(-n2ncc(-c3nnc(SCC(=O)NC4CCCC4)o3)c2N)cc1C", "Potency": "inconclusive: 15.8 µM [inhibitor, partial curve, poor fit]"}, {"smiles": "CCCCNC(=O)C1(C)CCCCN1Cc1ccc(-c2ccccc2)cc1", "note": "(stereo unspecified)", "Potency": "inactive"}, {"smiles": "Cc1cc(SCC(=O)N/N=C/c2ccccc2C(=O)O)c(C)cc1Br", "Potency": "inactive"}, {"smiles": "CC1CC(Nc2ccccc2)c2ccccc2N1C(=O)c1ccco1", "note": "(stereo unspecified)", "Potency": "inconclusive: 1.58 µM [inhibitor, partial curve, poor fit]"}, {"smiles": "Cc1cccc(N2CCN(S(=O)(=O)c3ccc4c(c3)NC(=O)CO4)CC2)c1C", "Potency": "inconclusive: 35.5 µM [inhibitor, single point]"}, {"smiles": "C=C(C)C1CC=C(CN2CCN(Cc3ccccc3)CC2)CC1", "note": "(stereo unspecified)", "Potency": "inconclusive: 35.5 µM [inhibitor, single point]"}, {"smiles": "COC(=O)c1ccc2[nH]c3cccc(/C(=C/c4ccccc4)c4ccccc4)c3c2c1", "Potency": "inconclusive: 35.5 µM [inhibitor, single point]"}, {"smiles": "CC(=O)c1cccc(NC(=O)C2CCN(S(=O)(=O)c3ccc(F)cc3)CC2)c1", "Potency": "inconclusive: 1 µM [inhibitor, full curve]"}, {"smiles": "Cn1c(=O)c2cc(NC(=S)NC3CC3)ccc2n1C/C=C/c1ccccc1", "Potency": "inactive"}, {"smiles": "Cc1ccc(C)c(N2CCN(S(=O)(=O)c3ccc4oc(=O)c5ncn(C)c5c4c3)CC2)c1", "Potency": "inactive"}, {"smiles": "O=C(Cc1ccc(Cl)c(Cl)c1)Nc1ccccc1N1CCCC1", "Potency": "inconclusive: 22.4 µM [inhibitor, single point]"}, {"smiles": "COc1ccc(OCC(=O)Nc2nccs2)cc1", "Potency": "inactive"}, {"smiles": "COC(=O)CCC(=O)c1oc2ccc(Br)cc2c1N", "Potency": "inactive"}, {"smiles": "Cc1ccc(C)c(Cn2c(=O)n(Cc3ccccc3)c(=O)c3c(C)c(C)sc32)c1", "Potency": "inactive"}, {"smiles": "CCCCCCCCNS(=O)(=O)CCNC1CCCCC1", "Potency": "active: 17.8 µM"}, {"smiles": "O=C(NCc1ccccn1)c1cccc(S(=O)(=O)Nc2ccc(F)cc2)c1", "Potency": "inactive"}, {"smiles": "CCc1ccccc1NC(=O)Nc1nnc(N2CCCC2)s1", "Potency": "inactive"}, {"smiles": "CCOc1ccc(/C=C/C2=CC(C)(C)NC(=S)N2)cc1", "Potency": "inconclusive: 11.2 µM [inhibitor, partial curve, poor fit]"}, {"smiles": "CCc1ccc(CN(Cc2ccco2)C(=O)c2ccccc2Cl)cc1", "Potency": "inconclusive: 0.1 µM [inhibitor, full curve, poor fit]"}, {"smiles": "Cc1cc2c(cc1C)N[C@]1(C[C@H]3CCCC(=O)N4CC[C@@H](C1)[C@@H]34)C(=NC(C)(C)CC(C)(C)C)N2", "Potency": "inconclusive: 20 µM [inhibitor, single point] and inconclusive: 22.4 µM [inhibitor, single point]"}, {"smiles": "O=C(CC1N=C2c3ccccc3N=C(SCC(=O)Nc3cccc(C(F)(F)F)c3)N2C1=O)NCc1cccs1", "note": "(stereo unspecified)", "Potency": "inconclusive: 22.4 µM [inhibitor, single point]"}, {"smiles": "CSc1ccc(CN2CCC(n3nccc3NC(=O)CCCc3ccccc3)CC2)cc1", "Potency": "inconclusive: 35.5 µM [inhibitor, single point]"}, {"smiles": "COc1ccc(CCNC(=O)c2nn(-c3ccc(C)cc3)c(=O)c3c2c2ccccc2n3C)cc1OC", "Potency": "inactive"}, {"smiles": "CCCCCC(=O)Nc1nc(C)c(-c2csc(Nc3cc(Cl)ccc3OC)n2)s1", "Potency": "inconclusive: 6.31 µM [inhibitor, single point]"}, {"smiles": "Cc1ccc2nc(-c3ccco3)c(Cc3cccc(F)c3)n2c1", "Potency": "inconclusive: 11.2 µM [inhibitor, single point]"}, {"smiles": "CCc1ccccc1NC(=O)c1cc(S(=O)(=O)N(CC)c2ccccc2)ccc1F", "Potency": "inconclusive: 2.82 µM [inhibitor, partial curve, poor fit]"}, {"smiles": "COC(=O)c1ccc(OCC(O)Cn2nnc3ccccc32)cc1", "note": "(stereo unspecified)", "Potency": "inactive"}, {"smiles": "CC1CCN(c2nc3c(S(=O)(=O)c4ccccc4)nnn3c3ccsc23)CC1", "Potency": "inconclusive: 35.5 µM [inhibitor, single point]"}, {"smiles": "CC[C@@]12C(=O)N(c3ccc(C)cc3)C(=O)N1[C@H](c1ccc(Br)cc1)[C@@H]1C(=O)N(C(C)(C)C)C(=O)[C@@H]12", "Potency": "inconclusive: 6.31 µM [inhibitor, single point]"}, {"smiles": "CCS(=O)(=O)Nc1cccc(-c2cc(-c3ccccc3)c3cc(C)ccc3n2)c1", "Potency": "inactive"}, {"smiles": "O=C(NCC(=O)N1CCN(C/C=C/c2ccccc2)CC1)c1ccc(Br)cc1", "Potency": "inactive"}, {"smiles": "CC(C)(O)c1[nH]c2cc(F)ccc2c1C(C)(C)O", "Potency": "inactive"}, {"smiles": "O=C(Nc1cccc(C(=O)Nc2ccc(Br)cc2)c1)c1ccccc1", "Potency": "inconclusive: 12.6 µM [inhibitor, single point]"}, {"smiles": "O=C(NCc1ccc(F)cc1)C1CCN(C(=O)c2ccc(-n3ccc4ccccc43)s2)CC1", "Potency": "inconclusive: 6.31 µM [inhibitor, partial curve]"}, {"smiles": "O=C1N(Cc2cccc(Cl)c2)C[C@@H]2C[C@@H](c3cccc4cccnc34)N3CCC[C@@]123", "Potency": "inconclusive: 31.6 µM [inhibitor, single point]"}, {"smiles": "CCN(CC)C(=O)C1=C(C)N(Cc2ccc(C(C)(C)C)cc2)C(=O)C(CC(=O)NC(c2ccccc2)c2ccccc2)C1", "note": "(stereo unspecified)", "Potency": "inconclusive: 12.6 µM [inhibitor, partial curve, poor fit]"}, {"smiles": "CCOC(=O)C1CCN(C(=O)Cn2nc(CC)n3cccc3c2=O)CC1", "Potency": "inactive"}, {"smiles": "O=[N+]([O-])c1ccc(O)c(/C=N/Nc2ncnc3c2cnn3-c2ccccc2)c1", "Potency": "inconclusive: 4.47 µM [inhibitor, partial curve, poor fit]"}, {"smiles": "Cc1ccc(C(=O)C2CCN(C(=S)NCC3CCCO3)CC2)cc1", "note": "(stereo unspecified)", "Potency": "inactive"}, {"smiles": "Cc1ccc(C)c(N2CCN(C(=O)C3CCC3)CC2)c1", "Potency": "inconclusive: 25.1 µM [inhibitor, single point]"}, {"smiles": "CCOC(=O)c1c(NC(=O)CSc2c[nH]c3ccccc23)sc2c1CCCC2", "Potency": "inconclusive: 35.5 µM [inhibitor, single point]"}, {"smiles": "CCC(C)c1ccccc1N1CC(C(=O)N2CCN(S(=O)(=O)c3ccc(F)cc3)CC2)CC1=O", "note": "(stereo unspecified)", "Potency": "inconclusive: 14.1 µM [inhibitor, single point]"}, {"smiles": "COc1cccc(C(=S)N2CCCC2)c1OC", "Potency": "inactive"}, {"smiles": "COc1cccc(NC(=O)Cn2cc(C=O)c3ccccc32)c1", "Potency": "inconclusive: 3.98 µM [inhibitor, partial curve, poor fit]"}, {"smiles": "Cc1ccc(NC(=O)c2ccc(N/N=C/c3cccc(O)c3)c([N+](=O)[O-])c2)cc1", "Potency": "inactive"}, {"smiles": "c1ccc(-c2cn3c(n2)CCc2ccc4cccnc4c2-3)cc1", "Potency": "inconclusive: 3.98 µM [inhibitor, full curve]"}, {"smiles": "Cn1cc([N+](=O)[O-])c(C(=O)Nc2nc(-c3ccc(Cl)cc3)cs2)n1", "Potency": "inconclusive: 3.16 µM [inhibitor, single point]"}, {"smiles": "CCOC(=O)CCC(=O)Nc1ncnc2c1C(c1ccccc1)c1c(ccc3ccccc13)O2", "note": "(stereo unspecified)", "Potency": "inconclusive: 35.5 µM [inhibitor, single point]"}, {"smiles": "COc1ccccc1-c1csc(NC(=O)c2cc(-c3cccs3)nc3ccccc23)n1", "Potency": "inactive"}]}]}
